# Data reported in PMC6664820, “Novel natural and synthetic inhibitors of solute carriers SGLT1 and SGLT2” (Pharmacology Research & Perspectives, 2019).
# Hit rate of the full screen: of about 1,900 compounds, about 40 (2%) showed an effect of 50% or more. Some of the results follow.
# Molecular target: human SGLT1 (hSGLT1) (human, UniProt P13866)
# Assay: primary screen, percent of control activity; higher = less effect of the substance
# Parameters: single well
# Conditions: 50 µM
# Method in brief: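 Single-point screen at 50 µmol/L in CHO-hSGLT1 cells, with 160 µmol/L 1-NBD-glucose in glucose-free DMEM for 90 min at 37°C. Fluorescence from isopropanol extracts was calibrated, and CHO wild-type uptake was subtracted. Data are percent of uptake without compound.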
# Chain of human SGLT1 (hSGLT1) (P13866 whole entry, looked up): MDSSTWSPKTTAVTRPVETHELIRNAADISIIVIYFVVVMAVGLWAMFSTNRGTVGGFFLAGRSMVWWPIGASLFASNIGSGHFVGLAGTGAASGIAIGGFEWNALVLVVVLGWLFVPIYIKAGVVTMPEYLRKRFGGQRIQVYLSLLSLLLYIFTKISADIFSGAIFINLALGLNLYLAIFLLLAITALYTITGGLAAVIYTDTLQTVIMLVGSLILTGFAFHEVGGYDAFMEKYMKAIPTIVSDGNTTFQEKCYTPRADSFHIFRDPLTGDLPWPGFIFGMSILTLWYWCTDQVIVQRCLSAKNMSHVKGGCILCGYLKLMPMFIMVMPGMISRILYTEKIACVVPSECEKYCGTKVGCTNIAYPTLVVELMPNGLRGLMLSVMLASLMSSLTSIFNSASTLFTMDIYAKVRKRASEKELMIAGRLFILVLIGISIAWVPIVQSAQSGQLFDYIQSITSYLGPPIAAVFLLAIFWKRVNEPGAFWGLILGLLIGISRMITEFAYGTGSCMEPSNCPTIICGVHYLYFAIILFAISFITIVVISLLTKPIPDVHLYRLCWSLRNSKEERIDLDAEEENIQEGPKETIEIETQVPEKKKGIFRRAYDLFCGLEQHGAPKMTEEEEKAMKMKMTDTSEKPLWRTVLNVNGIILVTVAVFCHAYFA
row,Compound,NORMALIZED SGLT1 ACTIVITY (%)
1,O=C(O)c1cc(O)c2cccc(O)c2n1,107%
2,C[N+](C)(C)CC(=O)[O-].Cl,106%
3,COc1ccc2[nH]cc(CCN)c2c1.Cl,120%
4,CCC(C)C(=O)O[C@@H]1C[C@@]2(C)[C@H](c3ccoc3)OC(=O)CC23OC2(C)OC34[C@H](OC(=O)C(C)C)[C@@]3(O)[C@@H](OC(=O)C5(C)OC5C)[C@@]5(C)C[C@]3(O)[C@@](C)([C@H]5CC(=O)OC)C14O2 (stereo partly drawn),122%
5,CC(C[N+](C)(C)C)OC(N)=O.[Cl-] (stereo not drawn),102%
6,O.O=c1ccc2cc(O[C@@H]3O[C@H](CO)[C@@H](O)[C@H](O)[C@H]3O)c(O)cc2o1,125%
7,Cc1ccc(C(=O)C(C)CN2CCCCC2)cc1.Cl (stereo not drawn),107%
8,C[C@H]1COc2c(N3CCN(C)CC3)c(F)cc3c(=O)c(C(=O)O)cn1c23,137%
9,C/C(=C(\CCOP(=O)(O)O)SC(=O)c1ccccc1)N(C=O)Cc1cnc(C)nc1N,104%
10,COC(=O)Nc1nc2cc(C(=O)c3ccccc3)ccc2[nH]1,192%
11,C[C@]12CCC3c4ccc(O)cc4CCC3C1CCC2=O (stereo partly drawn),149%
12,Cl.NC1C[C@H]1c1ccccc1 (stereo partly drawn),112%
13,Cc1ccc(/N=C/N(C)/C=N/c2ccc(C)cc2C)c(C)c1,105%
14,C[N+]1(C)C2CC[C@H]1C[C@@H](OC(=O)C(O)c1ccccc1)C2.[Br-] (stereo partly drawn),82%
15,CCCCNc1cc(C(=O)O)cc(S(N)(=O)=O)c1Oc1ccccc1,111%
16,COc1cc2c(cc1OC)C1C(=O)c3c(cc4c(c3O)C=CC(C)(C)O4)OC1CO2 (stereo not drawn),255%
17,CC(=O)OCC(=O)[C@@]1(O)[C@H](C)C[C@H]2[C@@H]3CCC4=CC(=O)C=C[C@]4(C)[C@@]3(F)[C@@H](O)C[C@@]21C,148%
18,CCS(=O)(=O)CCn1c([N+](=O)[O-])cnc1C,123%
19,COc1ccc(C(=O)c2ccccc2)c(O)c1,26%
20,CC1=C(/C=C/C(C)=C/C=C/C(C)=C/C=C/C=C(C)/C=C/C=C(C)/C=C/C2=C(C)CCCC2(C)C)C(C)(C)CCC1,155%
21,N=C(N)NCCCCN.O=S(=O)(O)O,105%
22,CC[C@H]1OC(=O)C[C@@H](O)[C@H](C)[C@@H](O[C@@H]2O[C@H](C)[C@@H](O[C@H]3C[C@@](C)(O)[C@@H](O)[C@H](C)O3)[C@H](N(C)C)[C@H]2O)[C@@H](CC=O)C[C@@H](C)C(=O)/C=C/C(C)=C/[C@@H]1CO[C@@H]1O[C@H](C)[C@@H](O)[C@@H](OC)[C@H]1OC,104%
23,CC(C)(O)[C@@H]1[C@H]2OC(=O)[C@@H]1[C@]1(O)C[C@H]3O[C@]34C(=O)O[C@H]2[C@]14C,88%

row,Compound,NORMALIZED SGLT1 ACTIVITY (%)
1,O=C(O)CCCc1ccc(N(CCCl)CCCl)cc1,83%
2,c1ccc2c(c1)sc1ccccc12,264%
3,COC(=O)C(O)[C@H]1C(C)(C)[C@@H](OC(C)=O)[C@@H]2CC3=C4CC(=O)O[C@@H](c5ccoc5)[C@]4(C)CCC3[C@@]1(C)C2=O (stereo partly drawn),75%
4,COc1ccc2c(c1)OC/C(=C/c1ccc(OC)c(OC)c1)C2=O,110%
5,CC[C@@H](CO)NCCN[C@@H](CC)CO.Cl.Cl,90%
6,COC1=CC(=O)C[C@@H](C)[C@]12Oc1c(Cl)c(OC)cc(OC)c1C2=O,122%
7,COC(=O)c1c(OC)cc2c(c1C)Oc1c(Cl)c(O)c(Cl)c(C)c1C(=O)O2,520%
8,N#Cc1c(Cl)cccc1Cl,120%
9,CC(C)N(C(=O)CCl)c1ccccc1,140%
10,COc1c2c(cc3c1OCO3)C13C=C[C@H](OC)CC1N(C2)CC3O (stereo partly drawn),92%
11,COc1c2c(cc3c1OCO3)CCN(C)C2,86%
12,Nc1nc(N)c2nc(CNc3ccc(C(=O)N[C@@H](CCC(=O)O)C(=O)O)cc3)cnc2n1,197%
13,O=C(O)c1cc(O)c(=O)c2c(O)c(O)ccc2c1,141%
14,CN1Cc2c(ccc3c2OCO3)C2C(O)Cc3cc4c(cc3C21)OCO4 (stereo not drawn),70%
15,CC(C)c1c(O)ccc2c1CC[C@H]1C(C)(C)CCC[C@]21C,191%
16,CC(=O)OCC(=O)[C@@]1(O)CCC2C3C[C@H](C)C4=CC(=O)C=CC4(C)C3[C@@H](O)CC21C (stereo partly drawn),184%
17,OCC(O)CN1CCN(c2ccccc2)CC1 (stereo not drawn),115%
18,CCCC1O[C@@H]2C[C@H]3[C@@H]4CCC5=CC(=O)C=C[C@]5(C)[C@H]4[C@@H](O)C[C@]3(C)[C@]2(C(=O)CO)O1 (stereo partly drawn),175%
19,Cc1cc(O)ccc1Cl,157%
20,COC(=O)Nc1nc2cc(C(=O)c3cccs3)ccc2[nH]1,137%
21,C=C1CC[C@@H]2[C@](C)(CO)[C@H](O)CC[C@@]2(C)[C@@H]1C/C=C1/C(=O)OC[C@H]1O,101%
22,O=c1ccc2ccc(O)cc2o1,161%
